# Laboratory results: PubChem BioAssay AID1347417 (National Center for Advancing Translational Sciences (NCATS), 2020)
# Several values for one entry are separate records, joined by “and”; a condition that tells them apart may be missing. Identical values can stand only once. In all, about 120,000 compounds went through this assay and about 5,300 (4.4%) were called active. This list was built around the results that the source calls inconclusive (neither active nor inactive); the mix of calls is not that of the screen. The call rests on the fitted dose curve; in most records, active means well fitted inhibition curve with a large enough effect; inconclusive means small, poorly fitted or top-dose-only effect; inactive means no such curve, though single readings can be large or run the other way. Where the call is inconclusive, the potency comes from a doubtful curve fit.
# Assay: qHTS Primary assay for Inhibitors of Plasmodium falciparum Dd2 growth in vitro; further: nearly all actives have a fitted effect of over 65% in size;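 on activity, negative = inhibition: plate controls were DMSO vehicle for no effect and reference drug for full effect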
# Conditions: P. falciparum Dd2 growth, SYBR Green, 72 h; activity, negative = inhibition: at 28.9 µM (top of the series) unless noted; series mostly up to 28.9 µM
# How it was run: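 Readout: SYBR Green fluorescence, 485 nm excitation, 535 nm emission, after ~16 h lysis at 37C. Before that, Dd2-infected red cells (2.5% hematocrit) grew 72 h with compound, 29 uM top final concentration.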
# Potency means the concentration at half of the fitted maximal effect; tags describe the fitted curve by direction and shape.
Compound,Potency,"activity, negative = inhibition"
COc1ccc(Cn2c3c(c(=O)n2Cc2ccccc2)CCN(C(=O)c2cocn2)C3)cc1,inactive,–
CCCC1(CO)CCCN(Cc2cn3ccc(C)cc3n2)C1 (configuration not stated),active: 10 µM,–
C[C@@H](c1ccccc1)N1C(=O)[C@@H]2CN(C(=O)c3cccnc3)CCN2C1=O,"inconclusive: 1.58 µM [inhibitor, full curve, poor fit]",–
CN(CCc1ccccc1)C(=O)CCC1CCN(c2cc(NC3CC3)ncn2)CC1,"inconclusive: 4.47 µM [inhibitor, partial curve, poor fit]",–
N#Cc1cccc(C(=O)NCC(=O)N2CCCCCNC(=O)CC2c2ccccc2)c1 (configuration not stated),inactive,–
CCCS(=O)(=O)c1c(S(=O)(=O)CCC)c2cc(C(C)(C)C)ccn2c1C(=O)c1ccccc1,active: 2.51 µM,–
COc1ccc(C(=O)N[C@@H]2CCC[C@@H]2C(=O)N2CCN(c3cc(C)ccc3C)CC2)cn1,active: 10 µM,–
Cc1cccc(CN2C[C@@H](F)[C@@H](OCc3nc4ccccc4[nH]3)C2)n1,"inconclusive: 17.8 µM [inhibitor, single point]",–
COC[C@H]1C[C@@H](NC(=O)c2ccccc2)[C@H](O)[C@@H]1O,inactive,–
COc1ccc(-c2nc(N3CCOC[C@H]3C)cc3c2CN(C(C)C)C3=O)cc1,"inconclusive: 1.58 µM [inhibitor, partial curve, poor fit]",–
CCN1CCc2c(sc(-n3cccc3)c2C(C)NC(=O)Nc2ccc(Br)cc2)C1 (configuration not stated),"inconclusive: 7.08 µM [inhibitor, partial curve, poor fit]",–
COc1cc(CNC(=O)c2ccc3c(c2)c(C)c(C)n3Cc2cccc(C)c2)cc(OC)c1OC,"inconclusive: 20 µM [inhibitor, single point]",–
CCCn1ccc2sc(C)c(C(=O)O)c2c1=O,"inconclusive: 0.282 µM [inhibitor, full curve, poor fit]",–
Cc1ccccc1-c1nn2c(=O)cc(CN3CCN(C(=O)COc4ccccc4Cl)CC3)nc2s1,"inconclusive: 5.01 µM [inhibitor, partial curve, poor fit]",–
O=C(NC1CCN(c2cc(-c3ccc(F)cc3)[nH]n2)CC1)c1c[nH]c2ccccc12,"inconclusive: 3.98 µM [inhibitor, single point]",–
COc1ccc2[nH]c3c(c2c1)CCNC31CCN(C(=O)c2ccc(C)nc2)CC1,"inconclusive: 7.94 µM [inhibitor, partial curve, poor fit]",–
C=CCNC(=O)[C@@H]1CCCN1[C@@H](C(=O)NC)c1ccccc1F,inactive,–
Cc1ccc(CN2CC[C@@H]3CN(S(C)(=O)=O)[C@@H]3C2)cc1C,"inconclusive: 3.98 µM [inhibitor, single point]",–
CCN(CC)C(=O)c1sc2c(c1C)c(=O)n(CCc1ccccc1)c(=O)n2Cc1cc(C)ccc1C,"inconclusive: 4.47 µM [inhibitor, partial curve, poor fit]",–
CCN(CC)C(=O)C(NC(=O)c1ccc(OC)cc1)C1CCN(C(C)=O)CC1 (configuration not stated),inactive,–
CN(C)c1ccc(CN2Cc3[nH]cnc3C[C@H]2c2nc(-c3ccncc3)no2)cc1,"inconclusive: 2.51 µM [inhibitor, full curve, poor fit]",–

Compound,Potency,"activity, negative = inhibition"
COc1ccc(C2Cn3nnc(-c4noc(-c5ccc(C)c(F)c5)n4)c3CO2)cc1 (configuration not stated),"inconclusive: 3.55 µM [inhibitor, single point]",–
O=C(Cc1cccnc1)N1CCCC(c2nc(CCOc3ccc(F)cc3)no2)C1 (configuration not stated),"inconclusive: 12.6 µM [inhibitor, single point]",–
CC(=O)c1ccc(NC(=O)O[C@@H]2CO[C@H]3[C@@H]2OC[C@@H]3n2nnnc2-c2ccccc2)cc1,"inconclusive: 17.8 µM [inhibitor, single point]",–
CC(O)c1cc2n(n1)CCCN(C(=O)Cn1nc3ccccc3n1)C2 (configuration not stated),inactive,–
CCN(C)Cc1cn(Cc2ccccc2)nc1-c1ccc2c(c1)OCO2,"inconclusive: 11.2 µM [inhibitor, partial curve, poor fit]",–
CC(C)C[C@@H]1N[C@H](C(=O)N2CCCC2)Cc2cn(Cc3nccn3C)c3cccc1c23,"inconclusive: 3.98 µM [inhibitor, single point]",–
CN1C(=O)c2ccccc2Sc2ccc(NC(=O)c3ccc(C(F)(F)F)cc3)cc21,"inconclusive: 15.8 µM [inhibitor, single point]",–
O=C(c1ccc(OC(F)(F)F)cc1)N1CCC(N2CC3CC(C2)[C@H]2CCCC(=O)N2C3)CC1 (some centres not stated),"inconclusive: 17.8 µM [inhibitor, single point]",–
O=C(c1cccc(Cl)c1)N1C[C@@H](CO)[C@H](c2nc(C3CC3)no2)C1,"inconclusive: 12.6 µM [inhibitor, single point]",–
Cc1ccc(-c2nocc2CCC(=O)N2CCC(Cc3ccccc3)CC2)cc1,inactive,–
Cc1ccc(-c2nocc2CCC(=O)NCC2CCCO2)cc1 (configuration not stated),inactive,–
CCCCN(C)CCNC(=O)c1cc2c(=O)n(C)c3ccccc3c2n1C,"inconclusive: 12.6 µM [inhibitor, partial curve, poor fit]",–
CCN(CC)CCNC(=O)c1cc2c(=O)n(C)c3cc(Cl)ccc3c2s1,"inconclusive: 17.8 µM [inhibitor, single point]",–
CCOC(=O)c1[nH]c(C)c(CCC(=O)NCc2ccc(CC)cc2)c1C,"inconclusive: 10 µM [inhibitor, single point]",–
COc1ccccc1-c1cc2c(nc1-c1ccccc1)nc(C(=O)NCCN(C)C)n2C,"inconclusive: 2.51 µM [inhibitor, full curve, poor fit]",–
COc1cccc(CN2c3ccccc3-c3nc(SCC(=O)Nc4ccccc4Cl)ncc3S2(=O)=O)c1,"inconclusive: 10 µM [inhibitor, single point]",–
COc1ccc(Nc2cc(C(=O)NCCCN3CCN(c4ccccc4F)CC3)c3ccccc3n2)c(OC)c1,active: 10 µM,–
COc1cccc(CN2CCCN(S(=O)(=O)c3ccccc3)CCC(=O)NCC2)c1OC,"inconclusive: 6.31 µM [inhibitor, partial curve, poor fit]",–
CC(C)COc1ccc(C(=O)N2CCN(CCc3ccncc3)CC2)cc1,inactive,–
COc1ccc(C(=O)NC2CCN(c3cc(-c4ccc(F)cc4)[nH]n3)CC2)c(OC)c1,"inconclusive: 3.98 µM [inhibitor, single point]",–
COc1ccccc1-c1ccc(CN2CCCC(c3nc4ccc(F)cc4c(=O)[nH]3)C2)cc1 (configuration not stated),"inconclusive: 1.58 µM [inhibitor, full curve]",–

Compound,Potency,"activity, negative = inhibition"
COC(=O)c1cc2oc3ccccc3c2n1Cc1ccc(Cl)cc1,"inconclusive: 17.8 µM [inhibitor, single point]",–
COc1ccccc1CN(C)C1CCc2ccccc21 (configuration not stated),"inconclusive: 3.55 µM [inhibitor, partial curve, poor fit] and inconclusive: 1.41 µM [inhibitor, partial curve, poor fit]",–
O=C(NC1CCN(c2cc(-c3ccccc3)[nH]n2)C1)c1cc(F)ccc1Cl (configuration not stated),"inconclusive: 11.2 µM [inhibitor, partial curve]",–
CCn1c2c(c(=O)n3ncc(C(=O)N4CCN(c5ccc(Cl)cc5)CC4)c13)CN(Cc1ccc(OC)cc1)CC2,"inconclusive: 10 µM [inhibitor, single point]",–
CN1CCC(OC2CCN(C(=O)C(C)(C)C)CC2)CC1,inactive,–
COc1ccc(CC(=O)N2Cc3ccccc3CC3(CCCN(C)C3)C2)cc1 (configuration not stated),"inconclusive: 8.91 µM [inhibitor, single point]",–
O=C(NCCc1noc(C2CC2)n1)C1CCC1,inactive,–
CCN(Cc1ccccc1)C(=O)C1CCCN(C2CCN(C(=O)C3CC3)CC2)C1 (configuration not stated),"inconclusive: 17.8 µM [inhibitor, single point]",–
O=C(Cn1cccc1-c1nc(-c2ccc(F)cc2)no1)Nc1ccc2c(c1)OCO2,"inconclusive: 2.51 µM [inhibitor, partial curve, poor fit]",–
CN1CCN(Cc2cn(Cc3ccccc3)nc2-c2ccc3c(c2)OCO3)CC1,"inconclusive: 12.6 µM [inhibitor, single point]",–
CN1C(=O)[C@@H]2C[C@@H](O)CN2C2(CN(Cc3cccc(F)c3)C2)C1=O,inactive,–
CNC(=O)[C@@H]1CN(C(=O)c2ccc3c(c2)OCO3)C[C@H]1c1nc(COC)no1,inactive,–
CCCCNC(=O)c1cc2n(n1)CCCN(Cc1ccc(C)cc1)C2=O,"inconclusive: 17.8 µM [inhibitor, single point]",–
CCCN1CCC2(CCN(C(=O)c3ccccc3C)CC2)Oc2ccccc21,"inconclusive: 10 µM [inhibitor, single point]",–
O=C1NCc2ccccc2CC12CCN(Cc1ccc(O)cc1)CC2,–,inconclusive: -138% [inhibitor]
Cc1cccc(C)c1NC(=O)Cn1c(=O)n(-c2ccccc2)c(=O)c2c1cc(C)n2C,inactive,–
O=C(NCc1ccncc1)c1ccc2c(c1)CC(=O)N2Cc1ccc(F)cc1,"inconclusive: 11.2 µM [inhibitor, single point]",–
COc1ccc(N2C(=O)CSC23C(=O)N(CC(=O)NCCc2ccccc2)c2ccccc23)cc1 (configuration not stated),"inconclusive: 11.2 µM [inhibitor, partial curve, poor fit]",–
Fc1ccc(-c2cnc([C@@H]3COCCN3Cc3ccccc3F)[nH]2)c(F)c1,"inconclusive: 2.51 µM [inhibitor, partial curve, poor fit]",–
CC(=O)N1CCc2c(sc3c2c(=O)n(CCc2ccccc2)c(=O)n3Cc2ccccc2C)C1,active: 7.94 µM,–
